# Measurements as given in PubChem BioAssay AID485294 (National Center for Advancing Translational Sciences (NCATS), 2010).
# The whole screen tested about 370,000 compounds, of which about 150 (0.041%) were called active. Inconclusive results, whose numbers are uncertain, are shown with a selection of clear calls. Calls follow the shape of the dose curve; as a rule, active = well fitted inhibition curve with a large enough effect; inconclusive = small, poorly fitted or top-dose-only effect; inactive = flat fitted curve, though single readings scatter. Potencies of inconclusive entries are left out as doubtful fits.
# Biological target: Beta-lactamase (Escherichia coli (strain K12)) (UniProt P00811)
# Chain of UniProt P00811 (P00811 whole entry, looked up): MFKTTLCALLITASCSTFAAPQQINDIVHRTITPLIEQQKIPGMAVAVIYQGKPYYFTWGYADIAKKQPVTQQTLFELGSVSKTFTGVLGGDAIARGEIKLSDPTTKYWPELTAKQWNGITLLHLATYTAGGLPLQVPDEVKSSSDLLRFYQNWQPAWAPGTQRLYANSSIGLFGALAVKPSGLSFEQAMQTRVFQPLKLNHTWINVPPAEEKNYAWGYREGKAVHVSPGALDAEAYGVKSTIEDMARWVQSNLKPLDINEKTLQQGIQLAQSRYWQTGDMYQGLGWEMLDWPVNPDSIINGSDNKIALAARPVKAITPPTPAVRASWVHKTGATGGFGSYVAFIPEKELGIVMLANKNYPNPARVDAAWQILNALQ
# Test: qHTS Inhibitors of AmpC Beta-Lactamase (assay with detergent); also: nearly all actives have a fitted effect of over 25% in size
# Settings: AmpC hydrolysis of nitrocefin, absorbance 480 nm, 0.01% Triton; series mostly up to 114 µM
# Summary of the method: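 AmpC (5.3 nM in the dispensed reagent) in 20 mM phosphate pH 7.0 with 0.01% (detergent screen) or 0.0001% Triton X-100 was preincubated with compounds for 15 min at room temperature. Nitrocefin was then added from an 800 uM solution, and hydrolysis was followed at 480 nm.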
# Potency is read from the fitted curve at half-maximal effect; tags tell the direction and shape of the fitted curve.
row,Structure (SMILES),Potency
1,CC(C)c1[nH]nc2c1C(C(C)C)C(C#N)=C(N)O2 (stereo unspecified),"inconclusive [inhibitor, full curve, poor fit]"
2,CCN(CC)C(=O)C1CCCc2c1[nH]c1ccc(Cl)cc21 (stereo unspecified),"inconclusive [inhibitor, full curve, poor fit]"
3,CC1=NN(C(=O)c2ccc(Cn3nc(C)c(Br)c3C)cc2)C(O)(C(F)(F)F)C1 (stereo unspecified),"inconclusive [inhibitor, full curve, poor fit]"
4,C=C1CCC[C@]2(C)C[C@H]3OC(=O)C(CN(Cc4ccc(OC)c(OC)c4)CC(C)O)[C@H]3CC12 (stereo partly specified),inactive
5,COC(=O)C(Cc1ccccc1)NC(=O)CCC(=O)NC(C)CCc1ccccc1 (stereo unspecified),"inconclusive [inhibitor, full curve, poor fit]"
6,CCN(C(=O)COC(=O)CNC(=O)c1ccccc1C)C1=CCCCC1,inactive
7,CC(=O)Nc1ccc(-c2csc(NNC(=O)c3ccccc3)n2)cc1,inactive
8,Cc1ccc(NC(=O)Cc2noc3ccccc23)nc1,"inconclusive [inhibitor, partial curve]"
9,COc1ccc(N2CCN(C(=O)COC(=O)c3cc(S(=O)(=O)N(C)C)ccc3N3CCCC3)CC2)cc1,inactive
10,Brc1ccc(C2=Nn3c(nnc3-c3n[nH]c4c3CCC4)SC2)cc1,"inconclusive [inhibitor, full curve, poor fit]"
11,c1ccc(-c2cn(C[C@H]3CC[C@H](Cn4cc(-c5ccccn5)nn4)O3)nn2)nc1,"inconclusive [inhibitor, partial curve, poor fit]"
12,COc1ccc(N(CC(=O)Nc2ccc(S(=O)(=O)N3CCOCC3)cc2)S(=O)(=O)c2ccccc2)cc1,"inconclusive [inhibitor, full curve, poor fit]"
13,O=C(C1CCCCC1)N1CCN=C1SCc1cccc([N+](=O)[O-])c1,"inconclusive [inhibitor, full curve]"
14,O=C(Nc1ccc2nc(-c3ccco3)c(-c3ccco3)nc2c1)NC1CC1,inactive
15,CCOC(=O)c1sc2nc3c(cc2c1N)COC(C)(CC)C3 (stereo unspecified),inactive
16,COc1ccc(CCNC(=O)CNS(=O)(=O)c2ccc(F)c(Cl)c2)cc1OC,"inconclusive [inhibitor, full curve]"
17,CC(C)OC(=O)CSc1nnc(-c2cnccn2)n1-c1ccc(Cl)cc1,"inconclusive [inhibitor, full curve, poor fit]"
18,Cc1onc(-c2c(F)cccc2Cl)c1C(=O)Nc1sc2c(c1C(N)=O)CCC2,"inconclusive [inhibitor, full curve, poor fit]"
19,Cc1ccccc1C(=O)NCc1ccc2c(c1)CCN2C(=O)c1ccc(F)cc1,inactive
20,O=C(Nc1ccccc1C(=O)O)c1cccc(NC(=O)c2ccccc2Br)c1,"inconclusive [inhibitor, partial curve, poor fit]"
21,O=C(Nc1cccc(S(=O)(=O)C(F)F)c1)c1ccc(S(=O)(=O)N2CCOCC2)cc1,"inconclusive [inhibitor, single point]"

row,Structure (SMILES),Potency
1,CCOC(=O)c1sc(NC(=O)CCN2CC(C)OC(C)C2)c(C(=O)OCC)c1C (stereo unspecified),"inconclusive [inhibitor, single point]"
2,COc1ccc(NC(=O)c2nc(S(=O)(=O)Cc3ccc(C)cc3)ncc2Cl)cc1,inactive
3,CCc1cccc(NC(=O)c2ccc(Br)o2)c1,"inconclusive [inhibitor, full curve, poor fit]"
4,CC(=O)Nc1ccc(NC(=O)c2ccccc2N(C)S(=O)(=O)c2ccccc2)cc1,"inconclusive [inhibitor, partial curve]"
5,O=C(COc1ccccc1)NC(=S)Nc1ccc2c3c(cccc13)CC2,"inconclusive [inhibitor, full curve, poor fit]"
6,CCc1ccc(N=C2NC(=O)CS2)cc1,"inconclusive [inhibitor, full curve]"
7,COc1ccc2cc(CN(Cc3ccco3)C(c3nnnn3C3CCCCC3)C(C)C)c(=O)[nH]c2c1 (stereo unspecified),"inconclusive [inhibitor, full curve, poor fit]"
8,CCOC(=O)c1cccc(NC(=O)Nc2cc(OC)ccc2OC)c1,"inconclusive [inhibitor, partial curve]"
9,CC(C(=O)NC1CCCC1)N(c1ccc(Oc2ccccc2)cc1)S(C)(=O)=O (stereo unspecified),"inconclusive [inhibitor, full curve, poor fit]"
10,Cc1[nH]nc(-c2ccc(O)cc2O)c1Oc1ccccc1,"inconclusive [inhibitor, single point]"
11,CC(C)N=C(NC#N)SCc1ccccc1,"inconclusive [inhibitor, partial curve, poor fit]"
12,CC(/C=N\N1CCN(c2ccc(Cl)cc2)CC1)=C\c1ccccc1,"inconclusive [inhibitor, partial curve, poor fit]"
13,O=C(N/C(=C\c1ccccc1)C(=O)N1CCOCC1)c1ccco1,inactive
14,Cc1ccccc1NC1=C/C(=N\S(=O)(=O)c2cccs2)c2ccccc2C1=O,inactive
15,Cc1ccc(NC(=S)NC2CCCC2)c(C)c1,"inconclusive [inhibitor, full curve, poor fit]"
16,COc1cccc(-c2nc3sc4c(c3c(=O)[nH]2)CCCCC4)c1,inactive
17,CCCn1c(SCC(=O)Nc2ccc(NC(=O)CC)cc2)nc2c1c(=O)n(C)c(=O)n2C,inactive
18,CC(C)Cn1c(CN(Cc2ccccc2)Cc2ccccc2)nc2c1c(=O)n(C)c(=O)n2C,"inconclusive [inhibitor, full curve]"
19,O=C(CCCCCn1c(=O)[nH]c2ccsc2c1=O)N1CCCCC1,"inconclusive [inhibitor, partial curve, poor fit]"
20,O=C(c1ccc([N+](=O)[O-])cc1)N(Cc1ccc(Cl)cc1Cl)N1C(=O)CCCC1=O,"inconclusive [inhibitor, full curve, poor fit]"
